# Publication PMC6919601, “Identification of Plasmodium dipeptidyl aminopeptidase allosteric inhibitors by high throughput screening” (PLoS ONE, 2019)
# Among all 110,000 compounds or so, about 230 (0.21%) showed an effect of 50% or more. Some of the results follow.
# Biological target: DPAP1 (Plasmodium falciparum, UniProt Q8IIJ9)
# Test: primary screen, percent inhibition; read by cleavage of a fluorogenic dipeptide substrate; higher = more effect of the substance
# Design: species or system P. falciparum D10 trophozoite lysates; single well
# 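Also: 30 min substrate incubation versus DMSO and 10 µM JCP410 controls.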
# Chain of DPAP1 (Q8IIJ9 whole entry, looked up): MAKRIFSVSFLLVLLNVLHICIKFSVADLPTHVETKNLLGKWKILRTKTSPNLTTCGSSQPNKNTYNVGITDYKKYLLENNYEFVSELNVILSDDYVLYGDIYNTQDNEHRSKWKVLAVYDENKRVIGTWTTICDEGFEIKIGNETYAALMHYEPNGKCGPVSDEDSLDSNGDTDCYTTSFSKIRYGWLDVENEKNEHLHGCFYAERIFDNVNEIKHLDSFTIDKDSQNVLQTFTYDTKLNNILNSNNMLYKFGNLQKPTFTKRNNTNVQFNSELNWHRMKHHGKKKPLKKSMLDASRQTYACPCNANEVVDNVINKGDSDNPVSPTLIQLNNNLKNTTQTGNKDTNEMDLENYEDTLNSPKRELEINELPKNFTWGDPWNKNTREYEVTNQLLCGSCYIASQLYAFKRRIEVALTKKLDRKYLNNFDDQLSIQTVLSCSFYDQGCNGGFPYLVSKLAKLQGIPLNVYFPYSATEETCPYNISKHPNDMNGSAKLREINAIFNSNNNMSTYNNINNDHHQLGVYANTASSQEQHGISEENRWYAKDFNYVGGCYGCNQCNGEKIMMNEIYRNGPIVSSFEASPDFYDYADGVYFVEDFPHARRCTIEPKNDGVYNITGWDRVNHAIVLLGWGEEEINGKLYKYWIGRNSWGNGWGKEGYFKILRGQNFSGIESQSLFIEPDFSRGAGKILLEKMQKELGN
row,Structure (SMILES),% Inhibition @ 10 uM [%]
1,Cn1c(SCC(=O)NC23CC4CC(CC(C4)C2)C3)nnc1-c1ccncc1,-0.0678
2,FC(F)(F)c1cc(-c2cccs2)nc(NC2CCCC2)n1,-10.1
3,COc1ccccc1C(=O)NCCNC1=NS(=O)(=O)c2ccccc21,5.39
4,CCOC(=O)c1cc(-c2ccc(C)cc2)n(CCC(=O)N2CCN(c3ccccn3)CC2)c1C,6.38
5,O=C(N1CCCc2ccccc21)C(O)(c1ccccc1)c1ccccc1,0.219
6,Cc1ccc(OCC(=O)Nc2ccc(Oc3ccccc3)cc2)cc1,5.84
7,CC(C)C(NC(=O)C12CC3CC(CC(C3)C1)C2)C(=O)Nc1nc2ccccc2s1 (stereo not drawn),-3.06
8,CC(C)(C)c1cc(-c2ccccc2)no1,-1.5
9,COc1ccc(-c2nc(CSCC(=O)O)c(C)o2)cc1,-1.99
10,Cc1ccc2c(c1)cc1c(=O)n(Cc3cccc(F)c3)nc(C)n12,-5.63
11,Cc1cc2cc(CNC(=S)NCc3ccccc3)ccc2[nH]1,-5.58
12,O=C1c2ccccc2C(=O)N1Cc1ccsc1-c1ccccc1,-2.65
13,COCCCNC(=O)c1cc(C)nc2c1c(C)nn2-c1ccccc1Cl,-4.97
14,Cc1nonc1NC(=O)CN1C(=O)c2ccccc2C1=O,4.07
15,COCCCNCc1c(C(=O)O)n(Cc2ccc(F)cc2Cl)c2ccccc12,1.93
16,CN(C)S(=O)(=O)N1CCCN(S(=O)(=O)N(C)C)CC1,-5.65
17,CCOC(=O)C1=C(O)/C(=C\c2ccc(OCc3ccccc3)cc2)N=C1C,0.131
18,CCOC(=O)N1CCN(CC(O)COc2ccc(C(C)C)cc2)CC1 (stereo not drawn),-0.088
19,CN(C)c1ccc2c(c1)OC(N)=C(C#N)C2c1cccc(C(F)(F)F)c1 (stereo not drawn),1.26
20,CCCCN(C)C(=O)/C(=C/c1cn(CC)c2ccccc12)NC(=O)c1cc(OC)c(OC)c(OC)c1,3.24
21,Cc1sc2ncnc(Nc3ccc4c(c3)OCO4)c2c1C,5.44
22,O=C1NC(=S)/C(=C/c2ccccc2Cl)S1,2.16
23,Cc1cccc(CNCc2c(C(=O)O)c(C)n(Cc3c(F)cccc3Cl)c2C)c1,2.99
24,Cc1oc(-c2ccc(Cl)cc2)nc1CSc1nc2ccncc2[nH]1,-2.37
25,CCOc1ccc(-c2cn3c(n2)sc2cc(C(=O)NCCC(C)C)ccc23)cc1,-1.19
26,CCOC(=O)c1ccc(-n2c(C)c3c(C)nnc(C)c3c2C)cc1,4.79

row,Structure (SMILES),% Inhibition @ 10 uM [%]
1,O=C(Cc1ccc(Cl)cc1)Nc1ccccn1,-2.19
2,CS(=O)(=O)CCC(C(=O)NCc1ccc2c(c1)OCO2)N1Cc2ccccc2C1=O (stereo not drawn),-3.81
3,COc1cccc(OCC(=O)N2CCN(C)CC2)c1,6.76
4,O=C(CN1C(=O)S/C(=C\c2ccco2)C1=O)c1ccc(Br)cc1,-7.09
5,Cn1ccnc1SCC(O)c1ccc(-c2ccccc2)cc1 (stereo not drawn),3.66
6,Oc1nc(-c2ccncc2)nc2ccccc12,5.35
7,CCOC(=O)N1CCC(N2CCN(c3cccc(Cl)c3)CC2)CC1,1.57
8,COc1cccc(/N=C2\SC(C(=O)Nc3ccc(C(=O)O)cc3)CC(=O)N2C)c1 (stereo not drawn),5.25
9,COc1ccc(C2=CSC(/N=C/c3ccc(F)cc3)=NN2)cc1,8.01
10,COc1ccc(S(=O)(=O)N2CCN(C)CC2)cc1,-4.4
11,Cc1ccc(SCC(=O)NC(C)(C)C)cc1,-4.48
12,O=C(Nc1cnc2ccccc2c1)C12CC3CC(CC(C3)C1)C2,-2.22
13,O=C(Nc1nccs1)C1COc2ccccc2O1 (stereo not drawn),-6.06
14,CCS(=O)(=O)c1nc(S(=O)(=O)c2ccc(C)cc2)c(NCCc2ccccc2)s1,-5.89
15,CCCN(CCC)CC(=O)Nc1cc(C)c2c(=O)oc3ccccc3c2n1,-0.984
16,CCn1c(SC(C)C)nc2sc3c(c2c1=O)CCC3,4.3
17,CSc1ccc(/C=C/c2cc(C(F)(F)F)nc(O)n2)cc1,2.05
18,O=C1CC(=O)NC(NOCc2ccc([N+](=O)[O-])cc2)=N1,2.81
19,O=C(Nc1cccnc1)c1cc(-c2ccc3c(c2)OCO3)on1,-2.47
20,Cc1cccc(NC(=O)c2ccc3c(c2)C(=O)N(Cc2cccnc2)C3=O)c1C,-2.74
21,COc1ccc(OC)c(-c2cc(C(=O)N3CCN(c4ncccn4)CC3)c3ccccc3n2)c1,0.64
22,CCCN1CCC(NCc2ccccc2Cl)CC1,-9.33
23,C=CCOc1c(Br)cc(CNc2ccc3[nH]c(O)nc3c2)cc1OCC,-3.23
24,CC1(C)c2ccccc2N2CCC(=O)NC21/C=C/c1cccnc1 (stereo not drawn),3.86
25,CC(C)c1ccc(C2C(C(=O)c3ccc(Br)cc3)=C(O)C(=O)N2c2nccs2)cc1 (stereo not drawn),3.6
